Measured values from paper PMC6919601, “Identification of Plasmodium dipeptidyl aminopeptidase allosteric inhibitors by high throughput screening” (PLoS ONE, 2019).
The whole screen tested about 110,000 compounds, of which about 230 (0.21%) showed an effect of 50% or more. Some of the results follow.

The compounds below were run against DPAP1 (Plasmodium falciparum, UniProt Q8IIJ9) (assay: primary screen, percent inhibition; read by cleavage of a fluorogenic dipeptide substrate; higher = more effect of the substance).
Sequence of DPAP1 (Q8IIJ9 whole entry, looked up): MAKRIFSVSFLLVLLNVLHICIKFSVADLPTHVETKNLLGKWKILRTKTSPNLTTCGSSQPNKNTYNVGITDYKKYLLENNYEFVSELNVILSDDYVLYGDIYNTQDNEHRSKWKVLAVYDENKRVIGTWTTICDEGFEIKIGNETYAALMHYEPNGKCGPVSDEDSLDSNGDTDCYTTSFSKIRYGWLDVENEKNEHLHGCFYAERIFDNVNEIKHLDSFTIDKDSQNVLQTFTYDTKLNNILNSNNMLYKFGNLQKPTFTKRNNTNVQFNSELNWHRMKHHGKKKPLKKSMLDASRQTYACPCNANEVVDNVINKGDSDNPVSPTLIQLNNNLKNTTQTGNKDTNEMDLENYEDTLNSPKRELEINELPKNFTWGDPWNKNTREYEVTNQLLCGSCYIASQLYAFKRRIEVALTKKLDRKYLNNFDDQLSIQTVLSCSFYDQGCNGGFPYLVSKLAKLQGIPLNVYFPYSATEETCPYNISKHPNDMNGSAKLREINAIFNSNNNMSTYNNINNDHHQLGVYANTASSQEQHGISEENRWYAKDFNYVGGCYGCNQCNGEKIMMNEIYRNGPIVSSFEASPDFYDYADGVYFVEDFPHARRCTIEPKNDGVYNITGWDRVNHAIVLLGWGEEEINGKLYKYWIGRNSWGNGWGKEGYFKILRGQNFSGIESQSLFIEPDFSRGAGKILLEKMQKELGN
Parameters: species or system P. falciparum D10 trophozoite lysates; single well
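Further: 30 min substrate incubation versus DMSO and 10 µM JCP410 controls.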

Row | Structure (SMILES) | % Inhibition @ 10 uM [%]
1 | O=C1c2ccccc2C(O)(c2ccccc2)N1Cc1ccco1 (stereo not shown) | 1.32
2 | Cc1[nH]c2ccc(C(=O)NCc3ccccn3)cc2c1C | 3.95
3 | CCN1CCCC1CNC(=O)CCn1cnc2onc(-c3ccc(F)cc3)c2c1=O (stereo not shown) | -2.34
4 | Cc1c(/C=C/c2nc3ccccc3c(=O)n2C)c2ccccc2n1C | 2.65
5 | CCOc1ccc(NC(=O)C2CCCCC2)cc1 | -3.57
6 | CCCCOc1ccc(C(=O)/N=c2\c(C(=O)OCC)cc3c(=O)n4ccccc4nc3n2C)cc1 | -0.363
7 | Cc1nc2ccccc2nc1N1CCNCC1 | 0.51
8 | Fc1ccc(-n2ncc3c(NCc4ccc5c(c4)OCO5)ncnc32)cc1 | 2.07
9 | Cc1ccc(CNc2oc(COc3ccccc3)nc2C#N)cc1 | -7.55
10 | O=C(Nc1ccc(N2CCOCC2)cc1)c1cnsn1 | -2.76
11 | COc1ccc(-c2c(Cc3ccccc3)nn3c(O)cc(C)nc23)cc1 | -5.28
12 | CCc1ccc(-c2csc(NC(=O)c3cccnc3)n2)cc1 | -1.04
13 | COc1cc(C2C3=C(O)CC(C)(C)CC3=NC(C)=C2C(=O)Nc2ccccn2)ccc1O (stereo not shown) | -4.7
14 | CCc1ccc(N2CC(C(=O)Nc3cccc(Cl)c3C)CC2=O)cc1 (stereo not shown) | -1.32
15 | C=CCN1C2=NCCN2c2ccccc21 | 1.54
16 | Cc1cc(O)c2c(C)nc(-c3ccccc3)nc2n1 | -3.42
17 | CC(C)C[C@H](NC(=O)c1cncc(N2CCOCC2)n1)C(=O)NCC#N | -6.98
18 | CCOC(=O)C1=C(C)N(CCO)C(=O)NC1c1cccc(O)c1 (stereo not shown) | 0.503
19 | CCOC(=O)C1CCN(CC(C)c2ccccc2)CC1 (stereo not shown) | -6.62
20 | Cc1cccc(-n2c(S)nnc2CCN2CCN(C)CC2)c1 | 2.6
21 | Cn1c(=O)c2c(nc3n2CC(C24CC5CC(CC(C5)C2)C4)=NN3Cc2ccccc2)n(C)c1=O | -3.04
22 | Cc1ccc(S(=O)(=O)N(C)c2ccccc2N(C)S(=O)(=O)c2ccc(C)cc2)cc1 | 0.968
23 | CCOC(=O)c1c(NC(=O)CSc2n[nH]c(-c3ccncc3)n2)sc(C)c1C | 4.61
24 | NS(=O)(=O)c1ccc(CCNc2nc3c(-c4cccc(Cl)c4)nnn3c3ccccc23)cc1 | -2.92
25 | CN(C)c1ccc(C2C(C#N)=C(N)N(c3ccc(Cl)cc3)C3=C2C(=O)CCC3)cc1 (stereo not shown) | 4.39

Row | Structure (SMILES) | % Inhibition @ 10 uM [%]
26 | COc1ccc(NS(=O)(=O)c2ccc(NC(=O)COc3cccc(C)c3)cc2)cc1 | 1.86
27 | O=C(C1=C(O)C(=O)N(CCCn2ccnc2)C1c1cccc(Cl)c1)c1cc2ccccc2o1 (stereo not shown) | -8.89
28 | Cc1cc(C)c2c(n1)SCC(=O)N2CC(=O)NCCCc1ccccc1 | 4.02
29 | CCOC(=O)N1CCN(C(=O)C2CCCN2S(=O)(=O)c2cccc3nsnc23)CC1 (stereo not shown) | 2.93
30 | COc1ccc(N(CC(=O)NCc2ccccc2Cl)S(C)(=O)=O)c(OC)c1 | 11.6
31 | COc1cccc(CN2CCN(Cc3ccccc3F)CC2)c1 | -7.93
32 | CCCCOc1ccc(C2c3c(oc4ccc(F)cc4c3=O)C(=O)N2CCCN(C)C)cc1 (stereo not shown) | 3.93
33 | CCc1cc2c(cc3c(=O)n(CC(=O)N4CCc5ccccc5C4)nc(CC)n32)s1 | -1.7
34 | O=C(C1CCCN(S(=O)(=O)c2cccc3nsnc23)C1)N1CCN(c2ccccn2)CC1 (stereo not shown) | -4.69
35 | COc1ccc(Cl)cc1NS(=O)(=O)c1ccc(OC)c(Cl)c1Cl | -9.6
36 | CC1(C)CC(=O)C(/C=N/Cc2ccc3c(c2)OCO3)=C(O)C1 | -2.87
37 | O=C(O)c1cccc(NC(=O)c2cccc(S(=O)(=O)N3CCc4ccccc43)c2)c1 | -0.622
38 | CC(C)(C)NCC(O)Cn1c2ccccc2c2ccccc21 (stereo not shown) | 5.03
39 | Cc1onc(-c2ccccc2Cl)c1C(=O)NCCCN1CCOCC1 | 3.01
40 | Cc1nn(Cc2ccc(C(=O)NCc3ccc(F)cc3)o2)c(C)c1Cl | -1.37
41 | O=C(CCN1CCN(c2ccccc2)CC1)Nc1ccc(OCc2ccccc2)cc1 | -1.89
42 | COC(=O)c1sc(-c2ccccc2)cc1NC(=O)c1ccc(Br)o1 | -3.96
43 | C=CCNC(=O)c1sc2nc(C)cc(C)c2c1NC(=O)c1ccccc1Cl | -5.96
44 | Cc1ccc(S(=O)(=O)/C(C#N)=C/C2=Cc3ccccc3OC2)cc1 | -1.33
45 | CC(=O)N[C@H]1[C@H](Oc2ccc3c(C)cc(=O)oc3c2)O[C@H](CO)[C@@H](O)[C@@H]1O | -4.51
46 | CCN1CCN(C(=O)c2cnn(-c3ccc(C)c(C)c3)c2C2CCN(C(=O)OC(C)(C)C)CC2)CC1 | 4.76
47 | COC(=O)C1CCCN1Cc1ccc(F)c(F)c1 (stereo not shown) | -1.41
48 | CCOc1ccc(Br)cc1C1N2CC3(C)CN1CC(CC)(C2)C3=O (stereo not shown) | -1.31
49 | COCCCNC(=O)Cc1coc2ccc3ccccc3c12 | 2.01
